Test results: PubChem BioAssay AID1347055 (National Center for Advancing Translational Sciences (NCATS), 2019)
Values joined by “and” are separate entries in the source; they are usually repeats but may differ in a detail not shown here. Equal values may be shown once. About 120 (0.22%) of roughly 54,000 compounds were called active. Inconclusive means that the source gave no clear call. Such entries were picked first, then a sample of the others. The call rests on the fitted dose curve; in most records, active means well fitted inhibition curve with a large enough effect; inconclusive means small, poorly fitted or top-dose-only effect, or effect the other way; inactive means flat fitted curve, though single readings scatter. Where the call is inconclusive, the potency comes from a doubtful curve fit.

target: Fumarate hydratase, mitochondrial (Homo sapiens) (UniProt P07954); assay: Identification of activators of human fumarate hydratase by quantitative high-throughput screening; conditions: FH coupled MDH/diaphorase resazurin fluorescence, 15 min; activity change, negative = inhibition: at 79.9 µM (top of the series); further: the screen sought activators but most active calls are inhibition curves; nearly all actives have a fitted effect of over 45% in size
On the % scale 0 is the no-effect control and ±100 the full control effect; potency means the concentration at half of the fitted maximal effect; tags describe the fitted curve by direction and shape.

Sequence of UniProt P07954 (P07954 whole entry, looked up): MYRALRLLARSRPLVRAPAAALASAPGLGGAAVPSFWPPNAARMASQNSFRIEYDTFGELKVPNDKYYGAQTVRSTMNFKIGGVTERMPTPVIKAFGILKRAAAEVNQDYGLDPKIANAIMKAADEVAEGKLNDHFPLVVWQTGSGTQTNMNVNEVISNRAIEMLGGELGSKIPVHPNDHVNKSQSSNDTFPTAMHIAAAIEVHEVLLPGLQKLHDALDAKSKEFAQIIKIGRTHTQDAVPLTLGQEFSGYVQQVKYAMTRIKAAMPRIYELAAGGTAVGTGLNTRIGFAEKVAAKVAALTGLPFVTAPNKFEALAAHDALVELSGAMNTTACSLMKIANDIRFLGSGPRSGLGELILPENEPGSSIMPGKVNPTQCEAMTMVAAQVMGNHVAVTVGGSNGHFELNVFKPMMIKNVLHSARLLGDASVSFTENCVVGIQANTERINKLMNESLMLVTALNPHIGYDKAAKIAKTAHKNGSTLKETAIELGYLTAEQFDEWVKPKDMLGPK

| SMILES | Potency | activity change, negative = inhibition |
| --- | --- | --- |
| COc1ccc(OCCn2c(C(C)Oc3ccccc3)nc3ccccc32)cc1 (stereo unspecified) | inconclusive: 20 µM [inhibitor, partial curve, poor fit] |  |
| Cc1ccc(-c2nc(-c3cc4cccc(OCc5ccc(F)cc5)c4oc3=O)no2)cc1 | inactive |  |
| COc1ccc(OC)c(NC(=O)CSc2cn(CC(=O)N3CCCCCC3)c3ccccc23)c1 | inconclusive: 25.1 µM [inhibitor, partial curve] |  |
| CCCN(CCC)CCNC(=O)Cn1cc2c(n1)-c1c(oc(C(=O)N3CCCC3)c1C)CC2 | inactive |  |
| O=C(Nc1ccc(S(=O)(=O)Nc2nccs2)cc1)C(c1ccccc1)c1ccccc1 | inactive |  |
| O=C1c2ccccc2-c2c(NCCc3ccccc3)c(=O)[nH]c3cccc1c23 | inconclusive: 31.6 µM [inhibitor, partial curve] |  |
| CCCCOC(=O)c1cccc(NC(=O)/C=C/c2ccccc2Cl)c1 | inconclusive: 22.4 µM [inhibitor, partial curve, poor fit] |  |
| Cc1ccc(S(=O)(=O)/C=C/C#N)cc1 | inconclusive: 28.2 µM [inhibitor, partial curve, poor fit] |  |
| Cn1nc(-c2ccc(C(F)(F)F)cc2)nc2c(=O)n(C)c(=O)nc1-2 | active: 3.98 µM |  |
| Cc1c(C(=O)OC2CCCCCC2)[nH]c2c1C(=O)CC(c1ccc(N(C)C)cc1)C2 (stereo unspecified) | inconclusive: 2.82 µM [inhibitor, partial curve, poor fit] |  |
| CCOc1ccc(CNC(=O)Cn2ccc3cc(S(=O)(=O)N4CCCCC4)ccc32)cc1 | inconclusive: 44.7 µM [inhibitor, single point] |  |
| COc1ccc(OC(C)C(=O)NCc2nc(-c3cccc(C)c3)no2)cc1 (stereo unspecified) | inconclusive: 15.8 µM [inhibitor, partial curve] |  |
| Cc1ccc(CCNC(=O)c2c[nH]c3ccc(S(=O)(=O)Nc4cccc(C(F)(F)F)c4)cc3c2=O)cc1 | inactive |  |
| O=C(CC1N=C2c3ccccc3N=C(SCc3cccc(Cl)c3)N2C1=O)NCCc1ccccc1 (stereo unspecified) | inconclusive: 22.4 µM [inhibitor, single point] |  |
| Cc1oc(-c2ccc(C(=O)NCc3ccccc3Cl)cc2)nc1CN1CCc2ccccc21 | inactive |  |
| Cc1ccc(-n2c(=O)c3c(c4cc(C)ccc4n3C)n(Cc3ccc(F)cc3)c2=O)cc1 | inconclusive: 28.2 µM [inhibitor, partial curve] |  |
| Cc1ccc(NC(=O)C(Cc2ccccc2)N2Cc3ccccc3C2=O)cc1Cl (stereo unspecified) |  | inconclusive: -33.7% [inhibitor] |
| CCOCCn1c(N2CCCN(C)CC2)nc2ccccc21 | inconclusive: 19.5 µM [activator, partial curve] |  |
| CCn1cc2nc(SCc3cccc(C(F)(F)F)c3)n(Cc3ccc(OC)cc3)c(=O)c2n1 | inconclusive: 35.5 µM [inhibitor, single point] |  |
| Cc1ccc(Nc2c(-c3ccc(C)o3)nc3cccc(C)n23)cc1 | inconclusive: 20 µM [inhibitor, partial curve, poor fit] |  |
| Cn1cc(C(=O)NCCc2ccccc2)c(=O)c2cc(S(=O)(=O)N3CCCCC3)ccc21 | inconclusive: 39.8 µM [inhibitor, partial curve, poor fit] |  |

| SMILES | Potency | activity change, negative = inhibition |
| --- | --- | --- |
| O=S(=O)(c1cccc2c(Cl)cccc12)N1CCCNCC1 | inactive |  |
| CCCc1c(OCCCOc2ccc(OCC(=O)O)cc2)ccc(C(C)=O)c1O | inconclusive: 28.2 µM [inhibitor, single point] |  |
| CC(=O)C1=C(O)C2c3c[nH]c4cccc(c34)CC2C(C)(C)N(C)C1=O (stereo unspecified) | inactive |  |
| CCCc1nn2cc(-c3ccc(C)c(C)c3)nc2s1 | inactive |  |
| Cc1ccc(Nc2ncc(C(=O)Nc3ccc(F)cc3F)c3ccccc23)cc1Cl | inactive |  |
| COc1ccc(CCNS(=O)(=O)c2ccc(N3CCCCS3(=O)=O)cc2)cc1 | inactive |  |
| CCc1ccc(C=C2SC(=S)NC2=O)cc1 | inconclusive: 34.3 µM [inhibitor, single point] |  |
| Cc1ccc(C)c(NC(=O)c2nnn(Cc3ccc(F)cc3Cl)c2N)c1 | inconclusive: 44.7 µM [inhibitor, partial curve, poor fit] |  |
| CCn1cc(C(=O)N2CCN(c3cc(Cl)ccc3C)CC2)c(=O)c2cc(S(=O)(=O)N3CCCCC3)ccc21 | inconclusive: 17.8 µM [inhibitor, partial curve] |  |
| O=C(NCCn1cc(SCc2ccc(F)cc2)c2ccccc21)c1cccs1 | inconclusive: 35.5 µM [inhibitor, partial curve, poor fit] |  |
| CCC(Sc1nnc(-c2ccc(OC)c(OC)c2)c(-c2ccc(OC)c(OC)c2)n1)C(=O)NC1CCCC1 (stereo unspecified) |  | inconclusive: -41.5% [inhibitor] |
| NC(=O)C(CCC(F)(F)F)N(Cc1ccc(-c2ncon2)cc1F)S(=O)(=O)c1ccc(Cl)cc1 (stereo unspecified) | inactive |  |
| COc1ccc(C(=O)Nc2nc3ccccc3n2CCOc2ccc(Cl)cc2)cc1 | inconclusive: 31.6 µM [inhibitor, partial curve, poor fit] |  |
| COc1ccc(C2CC(=O)c3cc(-c4nc(-c5cccc(Cl)c5)cs4)c(=O)[nH]c3C2)cc1 (stereo unspecified) | inconclusive: 3.55 µM [inhibitor, single point] |  |
| Cc1cccc(NC(=O)c2sc3nc(-c4cc5ccc(O)cc5oc4=O)[nH]c(=O)c3c2C)c1 | inconclusive: 20 µM [inhibitor, partial curve, poor fit] |  |
| Cc1ccccc1C(=O)N1CCC(C(=O)Nc2ccc(F)cc2F)CC1 | inconclusive: 35.5 µM [inhibitor, single point] |  |
| CC[C@@H]1Cc2cc(O)ccc2C2=C1c1ccc(O)cc1C[C@H]2CC | inconclusive: 39.8 µM [inhibitor, single point] |  |
| CC1(C)OC2=C(C(=O)c3ccccc3C2=O)[C@H](NCc2ccccc2)[C@H]1O | inactive |  |
| Cc1cccc(-c2nc(CN3CCCC(C(=O)NCCc4ccc(Cl)cc4)C3)c(C)o2)c1 (stereo unspecified) | inconclusive: 39.8 µM [inhibitor, partial curve] |  |
| Cc1cc(-c2ccc(C)c(S(=O)(=O)NCC3CCN(Cc4ccccc4F)CC3)c2)on1 | inconclusive: 31.6 µM [inhibitor, single point] |  |
| CCOC(=O)c1ccc(N2C(=O)c3n[nH]c(-c4ccco4)c3C2c2cccc(O)c2)cc1 (stereo unspecified) | inconclusive: 31.6 µM [inhibitor, single point] |  |

| SMILES | Potency | activity change, negative = inhibition |
| --- | --- | --- |
| Cc1ccc(S(=O)(=O)N(CCc2ccccc2)CC(=O)Nc2ccc(Br)cc2)cc1 | inconclusive: 2.51 µM [inhibitor, full curve, poor fit] |  |
| Clc1ccc(Nc2c(-c3ccccc3Cl)nc3ccc(Cl)cn23)cc1 | inconclusive: 39.8 µM [inhibitor, partial curve, poor fit] |  |
| COc1ccc(C)cc1NC(=O)c1cc(S(=O)(=O)N2CCN(c3cccc(C)c3C)CC2)ccc1F | inactive |  |
| Cc1cccc(NC(=O)/C(C#N)=C/c2ccco2)c1 | inconclusive: 20 µM [inhibitor, partial curve] |  |
| COc1ccccc1CC(=O)Nc1ccc2nc(Nc3cccc(C(F)(F)F)c3)cc(C)c2c1 | inconclusive: 25.1 µM [inhibitor, partial curve, poor fit] |  |
| Cc1cc(C)cc(-n2ccn(CC(=O)c3ccc(F)cc3)c(=O)c2=O)c1 | inconclusive: 10 µM [inhibitor, full curve] |  |
| O=C(NC1CCCCC1)c1ccc(CSc2nc3cccnc3n2Cc2cccc(F)c2)cc1 | inconclusive: 28.2 µM [inhibitor, partial curve, poor fit] |  |
| Cc1cc(C)c(S(=O)(=O)NCCc2sc3nc(-c4ccc(F)cc4)nn3c2C)c(C)c1 |  | inconclusive: -31.3% [inhibitor] |
| CC[C@@]1(O)C(=O)OCc2c1cc1n(c2=O)Cc2cc3c(CN(C)C)c(O)ccc3nc2-1 | inconclusive: 39.8 µM [inhibitor, single point] |  |
| COCCCn1c(=N)c(C(=O)NC2CCCC2)cc2c(=O)n3cccc(C)c3nc21 | inactive |  |
| COc1ccc(Cn2ccc3nc(C)c(C(=O)Nc4cc(OC)c(OC)c(OC)c4)cc3c2=O)cc1 | inconclusive: 2.24 µM [inhibitor, partial curve, poor fit] |  |
| CCOc1ccc(-n2c(SCC(=O)NCc3ccccc3)nc3n[nH]c(C)c3c2=N)cc1 | inactive |  |
| CCOC(=O)N1CCc2c(sc(NCc3ccc(N(CC)CC)cc3)c2C(=O)Nc2cc(OC)ccc2OC)C1 | inactive |  |
| CO[C@H]1/C=C\O[C@@]2(C)Oc3c(C)c(O)c4c(O)c(c5c(nc6cc(C)ccn65)c4c3C2=O)NC(=O)C(C)=CC=C[C@H](C)[C@H](O)[C@@H](C)[C@@H](O)[C@@H](C)[C@H](OC(C)=O)[C@H]1C | inconclusive: 19.3 µM [inhibitor, partial curve] |  |
| Cc1cc(Nc2cc(CN3CCOCC3)c3nc(C)c(Cc4ccc(Cl)cc4F)n3n2)n[nH]1 | inconclusive: 2.24 µM [activator, full curve] |  |
| O=C(Nc1cccc(Cl)c1)N1CC2CCCN2c2ccccc21 (stereo unspecified) | inconclusive: 28.2 µM [inhibitor, single point] |  |
| Oc1cc(O)cc(/C=C/c2ccc(O)c(O)c2)c1 | active: 3.55 µM and inconclusive: 35.5 µM [inhibitor, partial curve] |  |
| Cc1ccc(C(=O)O)cc1NC(=O)c1nsc2ccccc12 | inconclusive: 28.2 µM [inhibitor, partial curve, poor fit] |  |
| C=C(C)C(=O)O[C@H]1C[C@@](C)(O)C2(O)CCC(C)(/C=C3/OC(=O)C(COC)=C31)O2 (stereo partly specified) | inactive |  |
